Measured values taken from PubChem BioAssay AID1346428 (National Center for Advancing Translational Sciences (NCATS), 2018).
Values joined by “and” are separate entries in the source; they are usually repeats but may differ in a detail not shown here. Equal values may be shown once. Out of some 48,000 compounds screened, about 1,200 (2.5%) were called active. Not shown: some 2% with an inconclusive outcome.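 How the source made its calls: active means activation of at least 60% and not above a set upper limit (about 1 call in 100 departs from these limits); inconclusive means activation of 40% to 60%, or above that upper limit; inactive means activation under 40%.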 The list shows a part of the results. The source holds several records for some structures; these can differ, active in one and inactive in another.
Further: 0% is about no effect.

What follows are compounds tested against Probable G-protein coupled receptor 32 (Homo sapiens) (UniProt O75388) (assay: qHTS for Agonists of Human Resolvin D1 Receptor DRV1). Conditions: CHO-K1 GPR32 beta-arrestin PathHunter luminescence, 90 min; at 76.9 µM; stronger effect = higher value; zero percent set by DMSO-only wells.
UniProt O75388, sequence (O75388 whole entry, looked up, the tested form may be a part): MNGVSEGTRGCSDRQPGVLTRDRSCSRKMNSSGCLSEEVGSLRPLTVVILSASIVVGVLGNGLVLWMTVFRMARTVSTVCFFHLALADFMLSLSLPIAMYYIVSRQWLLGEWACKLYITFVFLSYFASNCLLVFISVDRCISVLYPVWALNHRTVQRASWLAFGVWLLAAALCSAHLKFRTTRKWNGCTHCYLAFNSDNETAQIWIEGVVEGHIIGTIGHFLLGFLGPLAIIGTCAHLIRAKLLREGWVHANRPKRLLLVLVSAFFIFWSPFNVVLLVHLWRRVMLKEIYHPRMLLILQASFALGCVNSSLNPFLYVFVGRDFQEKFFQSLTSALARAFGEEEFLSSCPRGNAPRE
How it was run: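 Agonism was scored as beta-arrestin recruitment to ProLink-fused GPR32 in stably transfected CHO-K1 cells, giving a chemiluminescent beta-Gal signal; compounds were incubated 90 min at 37 °C.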
`CCc1ccc(NC(=O)Cn2c(=O)n(-c3ccc(OC)cc3)c(=O)c3ccc(C(=O)NCc4ccc(C)cc4)cc32)cc1` was tested, and the activation was inactive: -9.34%. In the case of `Cc1ccc2nc(NC(=O)CSc3ncc(C(=O)Nc4ccc(F)cc4)c(=O)n3C)sc2c1`, the activation is reported as inactive: -12.5%. In the case of `Cc1c(CCC(=O)N2CCCCC2)c(=O)oc2cc3occ(C(C)(C)C)c3cc12`, the activation is reported as inactive: -4.41%. With `Cc1ccc(Cc2nc3ccccc3nc2SCC(=O)N2CCN(c3ccc(F)cc3)CC2)cc1` the activation was inactive: -24.1%. For `CCOC(=O)c1noc2nc(C)n(Cc3cccc([N+](=O)[O-])c3)c(=O)c12`, the activation was inactive: -8.74%. `COc1ccc(CNC(=O)Cc2ccc(NC(=O)N3CCSc4ncccc43)cc2)cc1` was tested, and the activation was inactive: 2.17%. For `COCCn1cc(C(=O)NCCCOC(C)C)c2c3ccccc3n(C)c2c1=O`, the activation was inactive: -2.07%. For `CCc1ccc(-n2nc(C)c3c(C)cc(=O)n(CC(=O)Nc4ccc(F)cc4C)c32)cc1`, the activation was inactive: 4.73%. In the case of `CCc1nn(CC(=O)NC(C)CCc2ccccc2)c(=O)c2cc3c(OC)cccc3n12` (stereo unspecified), the activation is reported as inactive: -24.8%. `Cc1nnc(SCC(=O)NCc2ccccc2Cl)c2nn(-c3ccccc3)c(C)c12` was tested, and the activation was inactive: -9.9%. `Cc1ccc2c(CN3CCN(C(=O)c4ccc(Br)cc4)CC3)cc(=O)oc2c1` was tested, and the activation was inactive: -8.11%. With `CCOC(=O)Cn1c(=O)n(C2CCCCC2)c2nc(-c3ccc(C(C)C)cc3)nc(C(N)=O)c21` the activation was inactive: -11.6%. In the case of `CCC(C(=O)N1CCN(c2cc(C)ccc2C)CC1)n1nc(C)n2c(cc3occc32)c1=O` (stereo unspecified), the activation is reported as inactive: 5.24%. With `Cc1ccc(S(=O)(=O)N2CCc3cc(C(=O)Nc4c(F)cccc4F)ccc32)cc1` the activation was inactive: -4.57%. For `CCOc1ccc(NC(=O)C2CCCN(c3nnc(C)c4c(C)n(-c5ccccc5)nc34)C2)cc1` (stereo unspecified), the activation was inactive: -6.78%. In the case of `Cn1c(=O)c2c(nc(N3CCOCC3)n2Cc2ccc(Br)cc2)n(C)c1=O`, the activation is reported as inactive: -2.25%. `COc1ccccc1NC(=O)CSC1=Nc2ccccc2C2=NC(CC(=O)NCc3ccccc3)C(=O)N12` (stereo unspecified) was tested, and the activation was inactive: -10%. For `COc1ccc(NC(=O)C2CCN(c3ccc(Sc4ccc(C)cc4)nn3)CC2)c(OC)c1`, the activation was inactive: 39.4%. In the case of `Cc1ccc(CN2CCN(C3CCNCC3)C(=O)C2=O)cc1`, the activation is reported as inactive: -11.1%. In the case of `O=C(CSc1ccc(-c2ccccn2)nn1)Nc1ccc(F)cc1F`, the activation is reported as inactive: -4.73%. For `O=C1c2ccccc2C(=O)c2c(NCCc3ccc(O)cc3)ccc(NCCc3ccc(O)cc3)c21`, the activation was inactive: -61.2%. `CCOc1ccc2nc(N3CCCC(C(=O)Nc4cc(Cl)c(OC)cc4OC)C3)sc2c1` (stereo unspecified) was tested, and the activation was inactive: -11%. `Cc1c(C(=O)Nc2cccc(-c3nc4ccccc4s3)c2)oc2ccccc12` was tested, and the activation was inactive: 2.9%. In the case of `CCCCCCSc1nnc2c(n1)OC(C)Nc1ccc(Br)cc1-2` (stereo unspecified), the activation is reported as inactive: 42.4%. `CCOC(=O)c1ccccc1NC(=O)COc1ccccc1-c1nnc(-c2ccccc2)o1` was tested, and the activation was inactive: -8.44%. For `CSc1nn(Cc2cccc(C)c2)c(N)c1S(=O)(=O)c1ccccc1`, the activation was inactive: 1.25%. With `COc1ccc(CNC(=O)c2ccc(NC(=O)N3CCSc4ccccc43)cc2)cc1` the activation was inactive: -24%. With `CCc1ccc(CNCc2c(C(=O)O)n(Cc3ccc(C)cc3)c3cc(C)ccc23)cc1` the activation was inactive: 32.6%. `COc1cc(NC(=O)C(CC(C)C)NS(=O)(=O)c2ccc3c(c2)CCN3C(C)=O)cc(OC)c1` (stereo unspecified) was tested, and the activation was inactive: -12.5%. With `COc1cc2c(=O)n(CCC(=O)NCC3CCCO3)c(=O)n(CC(=O)Nc3ccc(C)cc3C)c2cc1OC` (stereo unspecified) the activation was inactive: -6.3%. With `Cc1ccccc1Cn1c2ccccc2c2cnn(CC(=O)NC3CCC(C)CC3)c(=O)c21` (stereo unspecified) the activation was inactive: -13.6%. In the case of `Cc1ccc2nc(-c3ccc(NC(=O)c4ccc(S(C)(=O)=O)cc4)cc3)sc2c1`, the activation is reported as inactive: 0.0922%. For `CCOC(=O)N1CCC2(CC1)OC(=O)C(C)=C2C(=O)NCc1cccc(F)c1`, the activation was inactive: -4.62%. In the case of `CCCN1CCN(c2ncnc3sc(C(=O)Nc4c(C)cc(C)cc4C)c(C)c23)CC1`, the activation is reported as inactive: -12.7%. For `Cc1cccc(NC(=O)CN2C(=O)c3cccc4cccc2c34)c1C`, the activation was inactive: 5.1%. For `CCc1ccc(C(=O)c2cn(CC(=O)Nc3ccc(OC)cc3)c3cc4c(cc3c2=O)OCO4)cc1`, the activation was inactive: 26.6%. With `CCC1CN(S(=O)(=O)c2cc(-c3onc(C)c3C)ccc2C)c2cc(Cl)ccc2O1` (stereo unspecified) the activation was inactive: -28.9%. With `NC(=O)C1(N2CCCCC2)CCN(C(=O)Nc2ccc(F)cc2F)CC1` the activation was inactive: -7.47%. With `NS(=O)(=O)c1ccc(NC(=O)C(=O)Nc2ccc3nc4n(c(=O)c3c2)CCCCC4)cc1` the activation was inactive: -0.473%. With `Cc1ccc(Cn2ccnc2SCC(=O)Nc2nc3ccccc3s2)cc1` the activation was inactive: -5.26%. `C#CCOc1ccc(C2CC(=O)Nc3c2c(C)nn3-c2nc(C)cc(C)n2)cc1` (stereo unspecified) was tested, and the activation was inactive: -3.34%. `Cc1cccc(-n2ncc3c(N4CCCC(C)C4)ncnc32)c1` (stereo unspecified) was tested, and the activation was inactive: 42.5%. In the case of `Cc1cccc(C(=O)N2c3nc(-c4ccco4)nn3C3(CCCCC3)[C@@H]3CCCC[C@@H]32)c1`, the activation is reported as inactive: -20.4%. With `O=c1ccc(-c2ccccc2)nn1Cc1ccc(F)cc1Cl` the activation was inactive: 9.21%. For `O=C1c2c(O)cc(O)cc2OC(c2ccc(O)c(O)c2)C1O` (stereo unspecified), the activation was inactive: 0.299%. In the case of `O=C(Nc1ccc(-c2nc3cc(NC(=O)c4ccccc4F)ccc3o2)cc1)c1ccccc1F`, the activation is reported as inactive: 6.49%. For `COc1ccccc1C(=O)N1CCCCC1CCN1CCOCC1` (stereo unspecified), the activation was inactive: -9.4%. With `Cc1cccc(NC(=O)Cn2cc(C(=O)C3CCCCC3)c3ccccc32)c1C` the activation was inactive: 7.29%. With `CCCCCCCC/C=C\CCCCCCCC(=O)NCc1ccc(O)c(OC)c1` the activation was active: 75.1% and inactive: -15.8%. In the case of `N#Cc1ccccc1NC(=O)CSc1ncn[nH]1`, the activation is reported as inactive: -2.14%. For `Cc1ccccc1CNC(=O)Cn1ccc2cc(S(=O)(=O)N3CCCCC3)ccc21`, the activation was inactive: 14.8%. `COc1ccccc1NC(=O)c1sc2nc(C)c(C(=O)Nc3ccc(C)cc3C)c(-c3ccc(Br)cc3)c2c1N` was tested, and the activation was inactive: 7.63%. `Cn1c(=O)c2c(nc(Oc3ccc(F)cc3)n2Cc2ccc(F)cc2)n(C)c1=O` was tested, and the activation was inactive: -1.39%. For `O=C(NCc1ccccc1)c1cc2sccc2n1Cc1ccc(F)cc1`, the activation was inactive: -0.474%. With `Cc1ccc(CNC(=O)C(=O)NCC(c2cccnc2)N2CCN(c3ccc(F)cc3)CC2)cc1` (stereo unspecified) the activation was inactive: 1.67%. For `CCOc1ccc(C(=O)c2cn(CC(=O)Nc3ccc4c(c3)OCCO4)c3ccc(OC)cc3c2=O)cc1`, the activation was inactive: 3.96%. With `CCCc1nn2c(=O)cc(COC(=O)c3cccs3)nc2s1` the activation was inactive: 16.4%. `Cc1ccc(C)c(NC(=O)c2nc(S(C)(=O)=O)ncc2N(Cc2ccc(C(C)(C)C)cc2)Cc2ccco2)c1` was tested, and the activation was inactive: -12.4%. For `CN1C(=O)Cc2cc(S(=O)(=O)N3CCN(c4cccc(C(F)(F)F)c4)CC3)ccc21`, the activation was inactive: -3.7%. With `Cc1cccc(C(=O)Nc2ccc(C(=O)OCc3cc(=O)n4c5c(sc4n3)CCCC5)cc2)c1` the activation was inactive: -7.31%. For `CCOc1ccc(C(=O)CSc2nc3cc(C(=O)NC4CCCC4)ccc3c(=O)n2CC2CCCO2)cc1` (stereo unspecified), the activation was inactive: -13%. For `CC(=O)c1ccc(NC(=O)c2ccc3c(c2)nnn3C2CCCC2)cc1`, the activation was inactive: 0.239%. `CCOC(=O)N1CCC(NC(=O)c2ccc3c(c2)N(Cc2cc(C)ccc2C)C(=O)c2ccccc2S3(=O)=O)CC1` was tested, and the activation was inactive: -26.2%. `CCOc1ccc(CCn2c3c(c(=O)[nH]c2=O)C(NC(=O)c2ccccc2)(C(F)(F)F)C(=O)N3)cc1OCC` (stereo unspecified) was tested, and the activation was inactive: 27.4%. `CCCCCn1c(=O)[nH]c2cc(C(=O)N3CCN(c4cc(Cl)ccc4C)CC3)ccc2c1=O` was tested, and the activation was inactive: 3.58%. For `COc1ccc(NC(=O)CSc2nc3ccccc3nc2Cc2ccc(C)cc2)cc1Cl`, the activation was inactive: -14.2%. For `Cc1ccccc1C(=O)OCc1cc(=O)n2nc(C3CC3)sc2n1`, the activation was inactive: 9.09%. In the case of `Cc1ccc(C(=O)OCc2cc(=O)n3nc(-c4cccs4)sc3n2)cc1`, the activation is reported as inactive: -10.5%. `CCOC(=O)c1c(S(=O)(=O)NCC(=O)Nc2cc(C)ccc2OC)c(C)n(C)c1C` was tested, and the activation was inactive: -10.5%. For `CCN(CC)c1ccc2cc(-c3nc(-c4ccc(Cl)cc4Cl)cs3)c(=O)oc2c1`, the activation was inactive: 14.7%. `O=C(Cn1cc(SCc2ccccc2F)c2ccccc21)N1CCCCCC1` was tested, and the activation was inactive: -21.6%. For `COc1ccccc1NC(=O)Cn1c(=O)n(Cc2cccs2)c(=O)c2cccnc21`, the activation was inactive: 1.33%. With `Cc1nc(-c2ccccc2)sc1-c1ccc(SCC(=O)NCc2ccccc2)nn1` the activation was inactive: 16.5%. For `N=c1ccn2c(n1)O[C@H]1[C@H](O)[C@@H](CO)O[C@H]12`, the activation was inactive: -0.0273%. `CCOC(=O)c1ccc(Nc2nc3nonc3nc2Nc2cccc(C)c2C)cc1` was tested, and the activation was inactive: -7.49%. In the case of `Cc1c(Cl)cccc1NC(=O)C1CCCN(c2nnc(-n3c(C)ccc3C)s2)C1` (stereo unspecified), the activation is reported as inactive: 3.69%. For `O=C(NCc1ccc2c(c1)OCO2)c1ccc2c(c1)N(Cc1cccc(Cl)c1)C(=O)c1ccccc1S2=O` (stereo unspecified), the activation was inactive: -14.2%. In the case of `COc1ccc(CNC(=O)Cn2c(=O)nc(-c3ccccc3F)c3cc(Cl)ccc32)cc1`, the activation is reported as inactive: -0.374%. With `CCN(CC)C(=O)CSc1nc2cc3c(cc2c(=O)n1CCCCCC(=O)NCc1ccc(OC)cc1)OCO3` the activation was inactive: -13.5%. `Cc1ccc(CSC2=Nc3ccccc3C3=NC(CCC(=O)NCc4cccs4)C(=O)N23)cc1` (stereo unspecified) was tested, and the activation was inactive: -18.4%. With `O=C(NCC(c1ccc2c(c1)OCO2)N1CCN(c2ccccc2)CC1)C(=O)Nc1cccc(F)c1` (stereo unspecified) the activation was inactive: -6.22%.
